The values that follow come from the supplement of paper PMC9446081.

Hit rate of the full screen: of about 39,000 compounds, about 220 (0.56%) showed activity. The list shows a part of the results.
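Further: static incubation at 37 °C against the wild-type strain, values averaged over two biological replicates.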

This test relates to Escherichia coli K-12 BW25113. Description: relative growth (OD600 normalised to plate interquartile mean) (fraction); higher = less growth inhibition, active = 0.2 or less. To be noted: 50 µM; LB; incubation time: overnight (16-24 h).
Turning to `COCC#Cc1ccc2c(c1)O[C@@H](CN(C)C(=O)CN(C)C)[C@H](C)CN([C@H](C)CO)S2(=O)=O`, the relative growth was inactive: 0.986.

Regarding `COc1cccc(NC(=O)N[C@@H]2C=C[C@@H](CC(=O)N3CCOCC3)O[C@@H]2CO)c1`, the relative growth was inactive: 1.02.

For `CC(=O)N1c2ccccc2C2=NNC(=S)N[C@]21O`, the relative growth is inactive: 0.994.

As for `C[C@@H]1CCCCO[C@@H](CN(C)C(=O)Nc2ccccc2)[C@@H](C)CN([C@@H](C)CO)C(=O)c2cc(NC(=O)NC3CCCCC3)ccc2O1`, the relative growth was inactive: 1.01.

With `Nc1ccc(Nc2ccccc2)cc1`, the relative growth is inactive: 1.03.

Regarding `C[C@H](CO)N1C[C@H](C)[C@@H](CN(C)Cc2ccncc2)Oc2ccc(NC(=O)Nc3ccc(C(F)(F)F)cc3)cc2CC1=O`, the relative growth was inactive: 1.

Take `COc1ccc(NC(=O)N(C)C[C@H]2Oc3cc(C#CCN(C)C)ccc3S(=O)(=O)N([C@H](C)CO)C[C@H]2C)cc1`: the relative growth was inactive: 1.

As to `C[C@H](CO)N1C[C@H](C)[C@H](CN(C)C(=O)CCC(F)(F)F)OCCCC[C@H](C)Oc2ccc(NS(=O)(=O)c3ccc(Cl)cc3)cc2C1=O`, the relative growth was inactive: 1.01.

Take `O=C(Nc1ccno1)N1CCOCC1`: the relative growth is inactive: 0.996.

As for `O=C(O)C[C@H]1CC[C@@H]2[C@H](COC[C@@H](O)CN2S(=O)(=O)c2ccc(F)cc2)O1`, the relative growth is inactive: 1.01.

Turning to `C[C@@H]1CN([C@@H](C)CO)C(=O)c2cc(NC(=O)Cn3cnnn3)ccc2O[C@@H]1CN(C)S(=O)(=O)c1cccs1`, the relative growth was inactive: 1.02.

With `COCC(=O)Nc1ccc2c(c1)C(=O)N(C)C[C@@H](OC)[C@H](C)CN(Cc1ccccc1F)[C@@H](C)CO2`, the relative growth was inactive: 1.01.

As for `CC(C)[C@H]1NC(=O)CNC1=O`, the relative growth is inactive: 1.01.

As for `C[C@@H]1CN([C@H](C)CO)C(=O)c2cccc(NC(=O)C3CCOCC3)c2O[C@@H]1CN(C)S(=O)(=O)c1ccc(Cl)cc1`, the relative growth is inactive: 1.01.

For the compound `C[C@H]1CCCCO[C@H](CN(C)C(=O)CCCN(C)C)[C@@H](C)CN([C@@H](C)CO)C(=O)c2cc(NC(=O)Nc3cccc4ccccc34)ccc2O1`, the relative growth was inactive: 1.03.

Take `O=C(O)CCCCCCCC(=O)O`: the relative growth was inactive: 1.12.

Turning to `C[C@@H]1CCCCO[C@@H](CN(C)S(C)(=O)=O)[C@@H](C)CN([C@H](C)CO)C(=O)c2cc(NC(=O)c3ccncc3)ccc2O1`, the relative growth was inactive: 0.987.

As for `C[C@@H]1CN([C@@H](C)CO)C(=O)Cc2cc(NS(=O)(=O)c3cccs3)ccc2O[C@@H]1CN(C)S(=O)(=O)c1cn(C)cn1`, the relative growth is inactive: 0.981.

Take `COc1ccccc1CNC(=O)C[C@@H]1C[C@H]2c3cc(NC(=O)c4cccnc4)ccc3O[C@H]2[C@H](CO)O1`: the relative growth is inactive: 0.99.

As for `COc1ccc(CN(C)C[C@H]2Oc3ccc(NC(=O)Cn4cnnn4)cc3CC(=O)N([C@H](C)CO)C[C@H]2C)cc1`, the relative growth is inactive: 1.02.

As to `C[C@@H]1CN([C@H](C)CO)S(=O)(=O)c2ccc(C#Cc3ccncc3)cc2O[C@@H]1CN(C)S(=O)(=O)c1ccccc1`, the relative growth is inactive: 1.01.

On to `C[C@@H]1CN([C@H](C)CO)C(=O)c2cccc(NC(=O)c3nc4ccccc4s3)c2O[C@@H]1CN(C)S(C)(=O)=O`, for which the relative growth was inactive: 1.01.

As to `Cc1noc(C)c1NC(=O)N(C)C[C@@H]1OCCCC[C@@H](C)Oc2ccc(NC(=O)Cc3ccccc3)cc2C(=O)N([C@H](C)CO)C[C@@H]1C`, the relative growth is inactive: 0.998.

On to `CO[C@H](C(=O)N(C)C[C@@H]1OCc2ccccc2-c2c(n(C)c3ccccc23)C(=O)N([C@@H](C)CO)C[C@@H]1C)c1ccccc1`, for which the relative growth is inactive: 1.01.

Turning to `COc1ccc(NC(=O)Nc2cccc3c2O[C@H](CN(C)Cc2ccc(Oc4ccccc4)cc2)[C@H](C)CN([C@@H](C)CO)C3=O)cc1`, the relative growth is inactive: 0.931.

`FC(F)(F)C(Cl)Br` (stereo unspecified): the relative growth is inactive: 0.978.

As for `CN(C)CCCNC(=O)C[C@@H]1CC[C@H]2[C@H](COc3ccc(NC(=O)c4cccc(F)c4)cc3C(=O)N2C)O1`, the relative growth was inactive: 1.02.

With `O=C(O)CN1C(=O)c2cccc3cccc(c23)C1=O`, the relative growth was inactive: 0.99.

Turning to `C[C@H](CO)N1C[C@H](C)[C@H](CN(C)CC2CC2)Oc2c(NS(=O)(=O)c3ccc(F)cc3)cccc2C1=O`, the relative growth was inactive: 0.997.

With `COCC(=O)N(C)C[C@@H]1Oc2cc(-c3ccc(C#N)cc3)ccc2S(=O)(=O)N([C@@H](C)CO)C[C@H]1C`, the relative growth was inactive: 1.

For `COc1ccc(S(=O)(=O)Nc2ccc3c(c2)C(=O)N([C@@H](C)CO)C[C@@H](C)[C@@H](CN(C)S(=O)(=O)c2cccs2)O3)cc1`, the relative growth is inactive: 1.02.

Turning to `CC(=O)N1Cc2cc(C(=O)NCc3cccc(F)c3)nc(-c3cccc(C4=CCCCC4)c3)c2[C@H]1CCO`, the relative growth is inactive: 0.856.

Turning to `COc1cccc(S(=O)(=O)N2C[C@H](O)COC[C@@H]3O[C@H](CC(=O)N4CCN(C)CC4)CC[C@H]32)c1`, the relative growth is inactive: 1.

In the case of `C[C@@H]1CCCCO[C@@H](CN(C)S(=O)(=O)c2cn(C)cn2)[C@@H](C)CN([C@@H](C)CO)C(=O)c2cc(NC(=O)Nc3ccc(C(F)(F)F)cc3)ccc2O1`, the relative growth was inactive: 0.989.

`C[C@@H]1CN([C@H](C)CO)C(=O)c2cc(NS(=O)(=O)c3ccc(Cl)cc3)ccc2O[C@@H](C)CCCCO[C@H]1CN(C)Cc1ccc(C(F)(F)F)cc1`: the relative growth is inactive: 0.957.

As to `C[C@H](CO)N1C[C@H](C)[C@@H](CN(C)Cc2cccc(C(=O)O)c2)Oc2ncc(C#CC(C)(C)O)cc2C1=O`, the relative growth is inactive: 1.

Consider `CO[C@@H]1CN(C)C(=O)c2ccc(NC(=O)C3CC3)cc2OC[C@@H](C)N(C(=O)CN2CCOCC2)C[C@@H]1C`, for which the relative growth was inactive: 0.993.

Turning to `C[C@@H]1CN([C@H](C)CO)C(=O)c2cccc(NS(=O)(=O)c3cccs3)c2O[C@H]1CN(C)Cc1ccc(-c2ccccc2)cc1`, the relative growth is inactive: 0.996.

For the compound `C[C@H](CO)N1C[C@H](C)[C@H](CN(C)Cc2ccc(Oc3ccccc3)cc2)Oc2c(NC(=O)c3nc4ccccc4s3)cccc2C1=O`, the relative growth was inactive: 1.02.

`C[C@@H]1CN([C@H](C)CO)C(=O)c2cccc(NC(=O)c3ccc(-c4nccs4)cc3)c2O[C@H]1CN(C)C(=O)Nc1cccc2ccccc12`: the relative growth was inactive: 0.962.

For the compound `O=C(O)c1ccc2nc(O)c(=O)[nH]c2c1`, the relative growth is inactive: 0.994.

As to `COC(=O)Nc1nc2cc(C(=O)c3cccs3)ccc2[nH]1`, the relative growth is inactive: 1.06.

Consider `CN1CCN(C(=O)C[C@@H]2C=C[C@H](NS(=O)(=O)c3cccc(F)c3)[C@H](CO)O2)CC1`, for which the relative growth was inactive: 0.937.

Turning to `O=C1O[C@H](c2ccccc2)[C@H](c2ccccc2)N2[C@H]1[C@@H](C(=O)N1CCN(c3ncccn3)CC1)[C@]1(C(=O)Nc3ccc(C#CC4(O)CCCCCC4)cc31)[C@H]2c1ccc(O)cc1`, the relative growth was inactive: 1.04.

For `Cc1noc(C)c1NC(=O)N(C)C[C@@H]1Oc2c(NS(C)(=O)=O)cccc2C(=O)N([C@@H](C)CO)C[C@H]1C`, the relative growth was inactive: 0.983.

On to `Cc1cc(C(=O)Nc2cccc3c2O[C@@H](CN(C)S(=O)(=O)c2ccccc2)[C@H](C)CN([C@H](C)CO)C3=O)n(C)n1`, for which the relative growth was inactive: 0.961.

On to `C[C@@H]1CCCCO[C@H](CN(C)C(=O)Nc2cccc3ccccc23)[C@H](C)CN([C@H](C)CO)C(=O)c2cc(NC(=O)C3CCCCC3)ccc2O1`, for which the relative growth was inactive: 1.

For the compound `C[C@@H]1CN([C@H](C)CO)C(=O)c2cccc(NC(=O)Nc3cccc4ccccc34)c2O[C@@H]1CN(C)Cc1ccc(Cl)c(Cl)c1`, the relative growth was inactive: 1.

For the compound `C[C@@H]1CN([C@@H](C)CO)C(=O)c2cccc(NC(=O)c3cnccn3)c2O[C@@H]1CN(C)S(=O)(=O)c1ccc(F)cc1`, the relative growth is inactive: 1.01.

As for `C[C@@H]1CCCCO[C@H](CN(C)C(=O)C2CCCCC2)[C@H](C)CN([C@@H](C)CO)C(=O)c2cc(NC(=O)c3ccccc3)ccc2O1`, the relative growth was inactive: 1.01.

For the compound `C[C@@H]1CN([C@H](C)CO)C(=O)c2cccc(NC(=O)c3cnccn3)c2O[C@H]1CN(C)S(=O)(=O)c1cccs1`, the relative growth is inactive: 1.01.

As for `CC(C)(C)OC(=O)C[C@H]1CC=CC[C@@H](CC(=O)NCCO)C(=O)N[C@@H](Cc2ccccc2)COC1=O`, the relative growth is inactive: 0.986.

In the case of `CC(C)NC(=O)N(C)C[C@H]1Oc2ncc(-c3ccc(C(=O)N(C)C)cc3)cc2C(=O)N([C@@H](C)CO)C[C@@H]1C`, the relative growth is inactive: 0.983.

As to `CCC1(O)CC2CN(CCc3c([nH]c4ccccc34)C(C(=O)OC)(c3cc4c(cc3OC)N(C)C3C(O)(C(=O)OC)C(OC(C)=O)C5(CC)C=CCN6CCC43C65)C2)C1.O=S(=O)(O)O` (stereo unspecified), the relative growth was inactive: 0.932.

Regarding `COc1ccc(CCN2C(=O)[C@@]3(c4ccc([N+](=O)[O-])cc4)CC(=O)N(CC45CC6CC(CC(C6)C4)C5)[C@@H]3c3ccc(CO)cc32)cc1`, the relative growth is inactive: 0.994.

`COc1ccc(-c2ccc3c(c2)O[C@H](CN(C)CC2CCOCC2)[C@H](C)CN([C@H](C)CO)S3(=O)=O)cc1`: the relative growth was inactive: 0.999.

Consider `C[C@H](CO)N1C[C@H](C)[C@H](CN(C)Cc2ccc3c(c2)OCO3)Oc2ccc(NC(=O)Cn3cnnn3)cc2C1=O`, for which the relative growth was inactive: 1.01.

On to `COc1ccc(NC(=O)O[C@H]2[C@H](OC(=O)Nc3ccccc3-c3ccccc3)[C@@H](OC(=O)Nc3ccccc3-c3ccccc3)[C@@H](OC)O[C@@H]2COC(=O)NCCCCCC(=O)NO)cc1`, for which the relative growth was inactive: 1.02.

Consider `O=C(NC1CCCCCCC1)c1ccccc1-c1ccccc1`, for which the relative growth was inactive: 0.992.

Consider `C[C@H]1CN([C@@H](C)CO)C(=O)c2cccc(NC(=O)Nc3cccc4ccccc34)c2O[C@H]1CN(C)Cc1ccc(C(=O)O)cc1`, for which the relative growth is inactive: 0.998.

With `C[C@H](CO)N1C[C@H](C)[C@@H](CN(C)C(=O)Nc2ccc(C(F)(F)F)cc2)Oc2c(NC(=O)Nc3cccc4ccccc34)cccc2C1=O`, the relative growth is inactive: 0.991.
